The source gives no read counts; variants with many changes may rest on few reads.
B1: LINE1-full (parent)
chain: UACGUAGGUGGUUUUCCCCUGAUAGUGCUAAGGGGGCCUGGAAGUUUGGACUGGGCAGAGCUCAACACAGCGUGGCAAAGUGGCUGUGGCUAGACUGCCUCUCUGGAUUCCUCGUCACUCAGCAGGGCAUCUCUGAGAGAAAUGCC

Variants of: B1
Assay: self-cleavage, relative activity (ratio to wild type); higher = more cleavage; in vitro, sequencing; the parent is a self-cleaving ribozyme

| Variant | self-cleavage |
| --- | --- |
| UACGUAGGCGGUUUUCCCCUGGUAGUGCUAAGGGGGCCUGGAAGUUUGGACUGGACAGAGCUCAACACAGCGUGGCAAAGAGGCUGUGGCUAGACUGCCUCUCUGGAUCCCUCGUCACUCAGCAGGGCAUCUCUGAGAGAAGUGCC | 0.11 |
| UACGUAGGCGGUUUUCCCCUGAUAGUGCUAAGGGGGCCUGGAAGUUUGGACUGGGCAGAGCUCAGCACAGCGUGGCAAAGUGGCUGUGGAUAGACUGCCUCUCUGGAUUCCUCGUCACUCAGCAGGGCAUCUCUGAGAGAAAUGCC | 0.07 |
| UACGUAGGAGGUUUUCCCCUGAUAGUGCUAAGGGGGCCUGGAAGUUUGGACUGGGCAGAGCUCAACACAGCGUGGCAAAGUGGCUGUGGCUAGACUGCCUCUCUGGAUACCUCGUCGCUCAGCAGGGCAUCUCUGAGAGAAAUGCC | 0.16 |
| UACGUAGGCGGUUUUCCCCUGAUAGUGCUAAGGGGGCCUGGAAGUUUGGACUGGGCAGAGCUCACCACAGCGUGGCGAAGUGGCUGUGGCUAGACUGCCUCUCUGGAUUCCUCGCCUCUCAGCAGGGCAUCUCUGAGAGAAAUGCC | 0 |
| UACGUAGGCGGUUUUCCCCUGAUAGUGCUAAGGGGGCCUGGAAGUUUGGACUGGGCAGAGCUCAGCACAGCGUGGCGAAGUGGCUGUGGCUAGACUGCCUCUCUGGAUUCCUCGUCACUCAGCAGGGCAUCUCUGAGAGAAAUGCC | 0 |
| UACGUAGGCGGUUUUCCCCUGAUAGUGCUAAGGGGGCCUGGAAGUUUGGACUGGGCAGGGCUCAACACAGCGUGGCAAAGUGGCUGUGGCUAGACUGCCUCUCAGGAUUCCUCGUCACUCAGCAGGGCAUCUCUGAGAGGAAUGCC | 0.1 |
| UACGUAGGAGGUUUUCCCCUGAUAGUGCUAAGGGGGCCUGGAAGUUUGGACUGGGCAGAGCUCAACACAGCGUGGCAAAGUGGCUGUGGCUAGACUGCCUCUCAGGAUUCCUCGUCACUCAGCAGGGCAUCUCAGAGAGAAAUGCC | 1.31 |
| UACGUAGGCGGUUUUCCCCUGAUAGUGCUAAGGGGGCCUGGAAGUUUGGACUGGGCAGAGCUCAACACGGCGUGGCAAAGUGGCUGUGGCUAGACUGCCUCUCUGGAUUCCUUGUCACUCAGCAGGGCAUCUCUGAGAGAAAUGCC | 0.75 |
| UACGUAGGAGGUUUUCCCCUGAUAGUGCUAAGGGGGCCUGGAAGUUUGGACUGGGCAGAGCUCAACACAGCGUGGCAAAGUGGCUGUGGCUAGACUGCCUCUCUGGAUACCUCGUCACUCAGCAGGGCAUCUCUGAGAGAAGUGCC | 0.73 |
| UACGUAGGCGGUUUUCCCCUGAUAGUGCUAAGGGGGCCUGGAAGUUUGGACUGGGCGGAGCUCAACACAGCGUGGUAAAGUGGCUGUGGCUAGACUGCCUCUCUGGAUUCCUCGUCACUCAGCAGGGCAUCUCUGAGAGAAAUGCC | 1.4 |
| UACGUAGGCGGUUUUCCCCUGAUAGUGCUAAGGGGGCCUGGGAGUUUGGACUGGGCAGAGCUCAACACAGCGUGGCAAAGCGGCUGUGGCUAGACUGCCUCUCUGGAUUCCUCGUCACUCAGCAGGGCAUCUCUGAGAGAAAUGCC | 0 |
| UACGUAGGCGGUUUUCCCCUGGUAGUGCUAAGGAGGCCCGGAAGUUUGGACUGGGCAGAGCUCAACACAGCGUGGCAAAGUGGCUGUGGCUAGACUGCCUCUCUGGAUUCCUCGUCACUCAGCAGGGCAUCUCUGAGGGAAAUGCC | 1.15 |
| UACGUAGGCGGUUUUCCCCUGAUAGUGCUAAGGGGGCCUGGGAGUUUGGACUGGGCAGAGCUCAACACAGCGUGGCAGAGUGGCUGUGGCUAGACUGCCUCUCUGGAUUCCUCGUCACUCAGCAGGGCAUCUCUGAGAGAAAUGCC | 1.13 |
| UACGUAGGCGGUUUUCCCCUGAUAGUGCUAUGGGGGCCUGGAAGUUUGGACUGGGCAGAGCGCAACACAGCGUGGCAAAGUGGCUGUGGCUAGACUGCCUCUCUGGAUUCCUCGUCACUCAGCAGGGCAUCUCUGAGAGAAAUGCC | 0.24 |
| UACGUAGGCGGUUUUCCCCUGAUAGUGCUAAGGGGGCCUGGAAGUUUGGACUGGGCAGAGCUCAACACGGCGUGGCAGAGUGGCUGUGGCUAGACUGCCUCUCUGGAUUCCUCGUCACUCAGCAGGGCAUCUCUGAGAGAAAUGCC | 0.51 |
| UACGUAGGCGGUUUUCCCCUGAUAGUGCUAAGGGGGCCUGGAAGUUUGGACUGGGCAGUGCUCAACACAGCGUGGCAAAGUGGCUGUGGCUAGACUGCCUCUCUGGAUUCCUCGUCACUCGGCAUGGCAUCUCUGAGAGAAGUGCC | 1.28 |
| UACGUAGGCGGUUUUCCCCUGAUUGUACUAAGGGGGCCUGGAAGUUUGGACUGGGCAGAGCUCAACACAGCGUGGCAAAGUGGCUGUGGCUAGACUGCCUCUCUGGAUUCCUCGUCACUCAGCAGGGCAUCUCUGAGAGAAAUGCC | 0.96 |
| UACGUAGGCGGUUUUCCCCUGAUAGUGCUGAGGGGGCCUGGAAGUUUGGACUGGGCAGAGCUCAGCACAGCGUGGCAAGGUGGCUGAGGCUAGACUGCCUCUCUGGAUUCCUCGUCACUCAGCAGGGCAUCUCUGAGAGAAAUGCC | 0 |
| UACGUAGGCGGUUUUCCCCUGAUAGUGCUAAGGGGGCCUGGAAGUUUGGACUGGGCAGAGCUCAGCACAGCGUGGCAAAGUGGCUGUGGCUGGACUGCCUCUCUCGAUUCCUCGUCACUCAGCAGGGCAUCUCUGAGAGAAAUGCC | 0 |

Reference: the RNAGym collection of RNA variant scans (doi:10.7554/elife.90254)
